# Measurements published in the supplement of paper PMC7826260.
# Some of the results follow. Each Rep nickase domain was tested in vitro on the same pool of single strands at 3 µM enzyme and 37 °C for 1 h; the strands have 90 letters, of which the middle is given. Values are log2 of uncut reads against the no-enzyme pool; the lower, the more was cut; hits are not called. Because reads are shares of a total, they shift together; values above 0 arise when much of the pool is cut.
# System: T1, Rep nickase domain of tomato golden mosaic virus
# T1 sequence (residues 1-124, tag not shown): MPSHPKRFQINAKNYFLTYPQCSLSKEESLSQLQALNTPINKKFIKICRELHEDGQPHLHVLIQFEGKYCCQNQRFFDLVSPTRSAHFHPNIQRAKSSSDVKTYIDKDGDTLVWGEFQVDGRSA
# Experiment: uncleaved DNA left, log2 of reads against the no-enzyme library (log2 ratio); higher = less cleavage (more negative = more Rep cleavage of the k-mer); sequences stand for … in CTCGTCCG…ACCGGAGA
# Protocol: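 A pool of 90-nt single-stranded DNAs with seven random bases just before the constant AC of the nick site (name = the seven bases) was cut by 3 µM recombinant His6-SUMO-tagged Rep nickase domain (300 nM DNA, 50 mM HEPES pH 8.0, 50 mM NaCl, 1 mM MnCl2, 1 h, 37 °C, three replicates). Uncut DNA was amplified and sequenced.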
row,Sequence,uncleaved DNA left (log2)
1,CCAGTCT,-0.178
2,GTCTCAT,-0.023
3,GCAATCT,0.00844
4,TTATTCG,-0.171
5,CTTAACT,0.123
6,AAGCGAA,0.0527
7,GCAAGAA,-0.00598
8,TGCTAAA,-0.0948
9,GGGTGAA,0.0782
10,GGACGTT,-0.0445
11,ATAGGCC,0.022
12,TGGACCA,0.0453
13,CAATCGA,0.0477
14,TGCATAT,-0.181
15,GCTCAAT,0.244
16,CGTAGAG,-0.0649
17,GAAGTGA,0.0152
18,TGAGACT,-0.146
19,AACGAAG,-0.0751
20,ATCACCC,-0.0242

row,Sequence,uncleaved DNA left (log2)
1,CCGGCTA,0.0122
2,GACATAC,-0.0187
3,AGGCAAA,0.0775
4,CAAACGG,0.143
5,AGGTGGA,0.0274
6,ATTGGCA,-0.0549
7,GGAATAC,0.0382
8,ATCAGTC,-0.0465
9,CACTTGC,-0.146
10,GTCTTGG,0.19
11,AACCCAT,-0.0533
12,TATACGG,0.234
13,TCACCCG,-0.0409
14,AATTCTT,-0.553
15,CTCACGG,0.139
16,ACGCTCG,-0.000252
17,GTAGAGT,0.00787
18,ACGGTTT,0.0375
19,GTTGAGG,0.102
20,AGTCGAG,0.149
